Assay results published in US20130252334A1, “METHOD OF USING TET-INDUCIBLE TRANSGENES” (UNIVERSITY OF ROCHESTER, priority 2010, published 2013).

Test system: tet-ON GFP stable cells (HN33)
Conditions: for transgene expression, 6 vs 12-hour pulse exposure: total 48 hours; for GFP transgene activation, pulse dosing vs continuous exposure: 16 hours washout

SMILES	transgene expression, 6 vs 12-hour pulse exposure (0.25 μg/ml)	GFP transgene activation, pulse dosing vs continuous exposure (2.5 μg/ml, 12 hours pulse)	transgene (GFP) expression vs washout period length (2.5 μg/ml, 12 hours pulse, washout 0, 12, 24 hours)	transgene expression, 6 vs 12-hour pulse exposure (2.5 μg/ml)	GFP expression at high dose (10 μg/ml, continuous 40 hours)	transgene induction, continuous dosing 0.25 vs 2.5 μg/ml (48-hours exposure, normoxic)	GFP expression from the TetO promoter (continuous exposure 40 hours, 0.25-10 μg/ml, matched concentrations, relative to Dox, listed as 9TB)	GFP transgene activation, pulse dosing vs continuous exposure (2.5 μg/ml, 12 hours pulse, listed as doxycycline)
C[C@H]1c2ccc(C(C)(C)C)c(O)c2C(O)=C2C(=O)[C@]3(O)C(O)=C(C(N)=O)C(=O)[C@@H](N(C)C)[C@@H]3[C@@H](O)[C@@H]21 [9-TB, 9-t-butyl doxycycline]	clear differences were observed	dramatically increased expression levels	Shorter chase periods were associated with lower levels of transgene expression	equivalent levels of transgene expression	Lower levels of GFP expression	nearly equivalent transgene induction	higher levels of GFP expression	–
CC1c2cccc(O)c2C(=O)C2=C(O)C3(O)C(=O)C(C(N)=O)=C(O)C(N(C)C)C3C(O)C21 (stereo not drawn) [Dox, 4-[Dimethylamino]-1,4,4a,5,5a,6,11,12a-octahydro-3,5,10,12,12apentahydroxy-6-methyl-1,11-dioxo-2-naphthacenecarboxamide]	–	lowered GFP transgene activation	–	–	–	–	–	did not achieve acceptable transgene expression levels

Where two headings read alike, the source gives them in different places.
